Test results published in the supplement of paper PMC3334620.
The full ranking holds about 33,000 sequences; the median of “E-score (-0.5 to 0.5)” is about -0.035, and the highest 2% start at about 0.34. The list shows a part of the results.

target: T1, Mot3 (UniProt P54785); assay: PBM E-score (8-mer binding enrichment) (E-score (-0.5 to 0.5)); higher = stronger / more preferred TF binding; most listed sequences are background and not binding sites; details: protein concentration: 200 nM; construct: GST-full length
T1 sequence: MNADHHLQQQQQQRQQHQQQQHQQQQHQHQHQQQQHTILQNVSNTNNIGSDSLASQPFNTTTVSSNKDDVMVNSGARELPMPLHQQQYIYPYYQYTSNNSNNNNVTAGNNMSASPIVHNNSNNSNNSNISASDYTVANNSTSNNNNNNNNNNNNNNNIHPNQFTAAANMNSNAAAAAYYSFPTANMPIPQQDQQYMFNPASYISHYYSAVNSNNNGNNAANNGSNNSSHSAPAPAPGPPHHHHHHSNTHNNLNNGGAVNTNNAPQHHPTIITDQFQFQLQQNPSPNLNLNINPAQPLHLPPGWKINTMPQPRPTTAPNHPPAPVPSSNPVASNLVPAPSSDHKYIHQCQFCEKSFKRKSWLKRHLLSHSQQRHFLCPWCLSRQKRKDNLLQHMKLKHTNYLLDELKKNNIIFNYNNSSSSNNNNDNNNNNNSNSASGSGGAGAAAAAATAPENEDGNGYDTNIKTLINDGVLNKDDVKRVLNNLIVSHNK
How it was run: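 For each ungapped eight-base word taken together with its reverse complement, the Universal PBM Analysis Suite assigned an E-score. Binding data came from GST-tagged yeast transcription factors, applied at about 100-200 nM, on universal all-10-mer Agilent arrays made double-stranded by primer extension. Fluorescent anti-GST marked bound protein, and scans were normalised with masliner.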

Sequence | PBM E-score
ACTGATAG | -0.0844
TGCCACCA | -0.262
AGTAGGAC | -0.258
CGTTCTCC | -0.0473
AGATCAGA | -0.13
CGGATACC | -0.0192
ACCTAAGC | 0.0128
AATCTAGA | 0.00627
CGGACCGC | -0.253
GGTGCTCA | -0.191
ATCTAACG | 0.0107
AGAAGCAC | -0.066
CGCGCCGA | -0.0757
CCCGGCCA | -0.212
GATAAGAA | 0.113
TGAAGACA | -0.00966
TCTGGGCA | 0.0207
ACAAACAG | 0.196
AGCCGACT | -0.233
AGAACGAA | -0.0249
CGAGCATC | -0.198
AGCCGTAC | -0.25

Sequence | PBM E-score
AGCAGTCG | -0.277
AAAGGTAT | 0.102
ACCGAAAT | -0.102
AGCCACCC | -0.28
GAACCAAA | -0.108
AGCATAAA | 0.0776
ACGTCCAC | -0.152
CAGCTGCA | -0.15
CAAGTCTC | -0.0942
TTACGTAA | 0.298
AGCCCTTC | -0.223
CAACTAAG | 0.101
GCTGCGCC | -0.24
ATTGTTCA | 0.0311
CTAGGCGA | -0.178
GACTTTAC | 0.0573
ACGTGTTA | 0.351
AGCGTTAA | 0.0224
AGATAGCA | -0.126
AGAAGGAA | 0.382
ACGGGAAC | -0.0929
CGATAGTA | -0.0543

Sequence | PBM E-score
CGATTGAA | -0.134
AGGCCACG | 0.217
TAGCGCGA | -0.0707
CTGTTTGC | 0.17
CTACATGA | 0.361
ACGCACCA | -0.0561
CATTCTAA | 0.0389
AATCACTC | -0.076
ATCAGAGA | -0.113
CATATACC | -0.0726
GTTTCGCA | -0.157
GGGGCAGA | -0.114
ACCCGCGT | 0.168
TACTATCA | -0.0138
AGGTTTCA | 0.0712
ACTGAGTG | -0.0128
GAAGTGTC | -0.175
CCTGCTGC | 0.172
ACTAAGCA | 0.107
CGTGGGAG | -0.217
CCGAACCC | -0.187
CTTCCTAA | 0.0478

Sequence | PBM E-score
CCGCACTA | -0.105
ATATGTCC | -0.0425
ACCCCCAT | -0.244
CCCGAGTA | -0.0838
CCCCAAAC | -0.0441
ACTCGAAG | 0.0469
CCCTCTCA | -0.348
TAATCCAA | 0.128
GTCAGCAC | -0.131
CTTGATAA | 0.133
GCCACGAA | -0.133
ATACTTTC | 0.0999
ACTCTGTC | -0.059
AAAACAGA | -0.00096
CGCTCGCA | -0.241
AGGCAAAA | 0.467
ATCACAGA | -0.0135
AATTACGC | 0.33
CTGACGGC | -0.233
GGAACTAA | -0.0392
